# Experimental data taken from the supplement of paper PMC3334620.
# Whole data set: some 33,000 sequences, median “E-score (-0.5 to 0.5)” near -0.054, cut for the highest 2% near 0.35. The list shows a part of the results.
# Target: T1, Stb5 (UniProt P38699)
# T1 sequence: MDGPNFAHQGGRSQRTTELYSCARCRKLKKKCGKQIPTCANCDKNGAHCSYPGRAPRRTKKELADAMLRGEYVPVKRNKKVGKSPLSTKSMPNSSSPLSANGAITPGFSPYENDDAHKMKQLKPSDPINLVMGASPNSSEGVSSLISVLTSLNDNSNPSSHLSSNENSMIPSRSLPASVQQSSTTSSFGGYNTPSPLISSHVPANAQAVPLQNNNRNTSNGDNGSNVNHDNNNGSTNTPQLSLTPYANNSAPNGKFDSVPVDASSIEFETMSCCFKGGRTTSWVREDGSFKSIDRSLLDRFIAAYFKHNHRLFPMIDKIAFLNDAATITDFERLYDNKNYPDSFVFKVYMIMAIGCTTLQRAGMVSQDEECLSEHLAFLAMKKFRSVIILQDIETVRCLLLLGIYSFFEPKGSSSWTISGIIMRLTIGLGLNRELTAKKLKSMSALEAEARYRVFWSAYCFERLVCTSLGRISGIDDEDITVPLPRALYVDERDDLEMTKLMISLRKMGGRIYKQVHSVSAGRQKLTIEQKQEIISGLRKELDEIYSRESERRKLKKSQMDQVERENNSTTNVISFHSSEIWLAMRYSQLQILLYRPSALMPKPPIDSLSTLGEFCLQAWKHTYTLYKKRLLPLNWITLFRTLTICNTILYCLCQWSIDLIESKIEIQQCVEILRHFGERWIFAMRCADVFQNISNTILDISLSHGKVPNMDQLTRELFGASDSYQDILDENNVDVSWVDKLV
# Assay: PBM E-score (8-mer binding enrichment) (E-score (-0.5 to 0.5)); higher = stronger / more preferred TF binding; most listed sequences are background and not binding sites
# Conditions: protein concentration: 200 nM; construct: GST-full length
# Procedure, shortened: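 Using PURExpress in vitro transcription/translation, GST-tagged yeast transcription factors were made in full-length or DNA-binding-domain form. These were applied at about 100-200 nM to double-stranded universal all-10-mer Agilent arrays, and bound protein was detected with fluorescent anti-GST. Scans were normalised with masliner before the Universal PBM Analysis Suite assigned E-scores to ungapped eight-base words pooled with their reverse complements.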
row,Sequence,PBM E-score
1,GCGCTCAC,-0.187
2,AGTATAAA,0.149
3,CGTCTGTA,-0.0187
4,AGGATGAA,-0.147
5,ATGGGCAC,-0.112
6,GAGCGGGC,0.289
7,CATTTGAC,-0.0118
8,GTAGGACA,0.0831
9,CCGACGGA,0.394
10,ACGGCAAT,0.377
11,CTTGAGCA,-0.221
12,CAGGCTCG,-0.038
13,TCACGTGA,-0.139
14,CTAACTAC,-0.0905
15,GTCCCAAA,-0.0253
16,GCGACTCA,-0.156
17,GGAACAAA,0.0003
18,GAAAATTA,-0.0554
19,ACCAGGAC,-0.0538
20,ACAAGAAA,0.00862
21,AGAATGAG,-0.276
22,AGGCGAGA,-0.34
23,CGTAGGAC,0.103
24,CCTTTCTA,-0.0388
25,GACACAAA,0.0997

row,Sequence,PBM E-score
1,CTCGTGCA,-0.111
2,CGGAATCC,0.0455
3,CGCGATAC,0.0359
4,AATCCATA,-0.132
5,GCTTACTA,-0.111
6,ACAACGGG,0.152
7,CCACGTCG,0.0285
8,AGAATCAC,0.128
9,CCAGGCTA,-0.123
10,CGACTAGA,0.0592
11,ACTCACCG,0.202
12,GAACGGAC,0.331
13,AAGCATTG,-0.262
14,GTGGAGCA,-0.144
15,AACAAGTG,-0.125
16,AAGGGTAC,-0.197
17,AGCCTTAA,-0.0403
18,AGGAGATC,-0.188
19,AATCTTCA,-0.128
20,AGGAAGCC,-0.14
21,CGACCCAC,0.12
22,CAGCACTA,-0.218
23,AGTATTCC,-0.088
24,GCTCCGAA,0.238
25,ACACTGAT,-0.286

row,Sequence,PBM E-score
1,GTGTTTGA,-0.0362
2,GGAGCCGA,0.114
3,CCCAGTTC,-0.104
4,AAGTATTG,-0.0823
5,TATTTGCA,-0.229
6,TGTCCACA,-0.18
7,CAAAGTCA,-0.141
8,AGATGCAC,-0.0793
9,CTATTCGA,-0.103
10,CTTGCCGC,0.149
11,GAAGCTTC,0.00696
12,GGTTAGCA,0.00475
13,CCGAGGTA,0.0379
14,GGCATCCA,-0.158
15,GAATTCAA,-0.0423
16,AAAAATGC,0.154
17,ATTACACC,0.327
18,CTACGCAC,-0.128
19,CGTTACAC,0.115
20,GCGTTTCA,-0.0705
21,ACTGAAAG,0.0167
22,GGTGTCCA,0.0299
23,CCAGCGTA,0.0135
24,CCCTTGGA,-0.154
25,AATCCGCG,0.21

row,Sequence,PBM E-score
1,CGATCGAA,0.0626
2,ATGGCGCA,0.0395
3,ACTATTTA,0.0538
4,AGCCGGGG,0.165
5,CACATAGC,0.0703
6,CCTACCCG,-0.0479
7,GAGTAGTA,-0.126
8,CCAGTACC,0.00859
9,AGCTATGC,-0.217
10,CAATGGCA,0.022
11,CATCTGAC,-0.135
12,CTACTTAC,-0.238
13,AACTATCC,0.0181
14,AATTCTGT,-0.095
15,GGTGGGAC,0.0449
16,AACAATTA,0.0355
17,GCCGAACC,0.176
18,CAAACCTA,-0.179
19,AGCATTCC,-0.12
20,CAACATAG,-0.0327
21,CTTTTTTA,-0.116
22,TTACCGAA,0.187
23,ACCTACTA,0.0486
24,ACTGTGAG,-0.139
25,GCTTACCA,0.0405

row,Sequence,PBM E-score
1,CTATCACA,0.0614
2,TGATATCA,-0.0315
3,ATAGGATC,0.0278
4,ATTATGCG,0.063
5,GCGAACAA,-0.182
6,CCGGGGTA,0.268
7,CCAGGGGG,-0.22
8,ACTGGCCC,-0.129
9,AATGTGGG,0.0435
10,AAGAGACA,-0.258
11,ACCGCCCA,0.33
12,AACAGGGC,-0.081
13,GCGTCTCA,-0.0552
14,AACCAAAG,-0.258
15,CCACGGCC,0.176
16,CTCAAATC,-0.136
17,CGTTTGGA,-0.118
18,CTTTGGCC,0.0132
19,TAACCGGA,0.271
20,CACTACAC,-0.13
21,AAGCTGCG,-0.0216
22,CGGGCATA,0.419
23,AATGAGAC,-0.1
24,TCAACCAA,-0.16
25,GTGGTTCA,-0.13

row,Sequence,PBM E-score
1,ACCTTGAT,0.0356
2,TGATGTAA,0.0351
3,GAGTAAAC,-0.143
4,GTTAGAAC,0.0768
5,AGCTCGGG,0.108
6,ATTACGTA,0.0812
7,GCGATGTA,-0.00528
8,AATCAGTA,-0.135
9,ACCTCTGC,-0.169
10,GGACGTGA,-0.111
11,AGTCTGTG,-0.27
12,AGTACCAG,-0.0537
13,AATGCTTC,-0.107
14,AGATATAA,0.138
15,ATCGTTCA,-0.0773
16,CTTTTTCA,-0.244
17,CCAAGACC,0.1
18,CTAAAGAC,0.0363
19,CCCTAAGA,-0.0919
20,ACTGATTG,-0.359
21,AGGGAACG,-0.0157
22,AACCTATT,-0.00616
23,ACCTGGCG,0.0914
24,TCAGTGAA,-0.111
25,ATCCACCC,-0.0516

row,Sequence,PBM E-score
1,CCATGATC,-0.0309
2,CAACTGCC,0.0337
3,GGCCTAAC,0.181
4,GCTAGGGA,-0.193
5,GATCCAGC,-0.161
6,ATTCTGGC,-0.0252
7,AAAGAAAC,0.0303
8,AAAAATCC,0.262
9,ATGAGCAC,-0.119
10,ACGTGAAG,-0.205
11,CAGCGAGA,-0.198
12,CCACGTAC,-0.199
13,AGCTATAA,0.0235
14,CGGGGAAG,0.176
15,GGGTCAAC,0.0164
16,TGAGGGCA,-0.259
17,GGGTTCGA,-0.145
18,ACATCTAC,-0.0618
19,TCCTACCA,-0.166
20,ATTCCTTG,-0.116
21,GCAGTTAA,0.166
22,GAAGGAAA,-0.104
